Source: the supplement of paper PMC11417369
This is one part of the list.

system: PfHDP1 homeodomain (GST-tagged); experiment: gcPBM binding intensity (ln(normalized median fluorescence intensity)); higher = stronger DNA binding
In short: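 An Agilent 4 × 180k array of primer-extended double-stranded 36-bp intergenic genomic probes, with negative controls, was incubated for 1 h with GST-tagged P. falciparum DNA-binding domains expressed in E. coli. Alexa488 anti-GST antibody detected bound protein, scanned at 488 nm. Binding intensity is the highest Masliner-normalised natural-log median intensity across replicate spots of either probe orientation.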

| Sequence | gcPBM binding intensity (ln) |
| --- | --- |
| TATATACACATATATACACACACATATATATATATA [CACACA_site9127] | 9.23 |
| ATATATCTACTGTGTTGTACTGTTAATATTTGAATA [XGTACX_site1931] | 6.58 |
| ATATAAGTGTATCTAACACACAAATATGTAAAAATG [CACACA_site7006] | 6.39 |
| ATATTTTTTGCTATTACACACAAGGGATTATTATTT [CACACA_site7776] | 7.18 |
| AAGAAAAAAAATATATATGTATATATTATTTTAACA [TGCATGCA_negctrl_site534] | 6.15 |
| ATGTTAATAACTTGTGGTACTGTTATAATTTAGTAA [XGTACX_site2114] | 6.14 |
| TAATAATAGTCTAATACATGCATCGATAACGGAACT [TGCATGCA_site98] | 6.9 |
| ATATAAATTATTTACACACAAACATTTATACTTTTA [CACACA_site3448] | 6.77 |
| TTTTGTTACGGCAAGGAAGTTAAGCATAAATGAATG [GTGCAC_negctrl_site173] | 6.82 |
| CAGGCGTGAAATATACGTACACACATTATTTATATT [XGTACX_site5337] | 6.47 |
| AAAAAAAAAAAATATACACACACATATATATATATA [CACACA_site9123] | 9.17 |
| AACAACAATTTCGTCATACACACATTCAGAATATAT [CACACA_site2371] | 6.72 |
| TATTAAAAAAATGTATGTACATATATAAATTTTTTT [XGTACX_site1094] | 6.15 |
| AATGATCATAAATACACACACACAAAAAAAAAAAAA [CACACA_site6072] | 6.39 |
| AAAGTAAAAGAAAGCACACACACATGTATATATGTA [CACACA_site3857] | 6.45 |
| GATGGATTTATTTAAAGTACATATTTAAAAAACTGT [XGTACX_site7567] | 6.18 |
| TTTCTCCCATTTTTTAGTACACAAAATATATATGTA [XGTACX_site7218] | 6.9 |
| TTTTTATTTTTAAAGGCACACACATTTTTATTTTTA [CACACA_site8624] | 6.39 |
| AAATGAAATTTGTATACACACAAATATATTTATATA [CACACA_site6525] | 6.36 |

| Sequence | gcPBM binding intensity (ln) |
| --- | --- |
| TATTTGTGCCAAAAATGAAAAAGTTTGTATAAAACC [CACACA_negctrl_site1406] | 6.52 |
| AATAAATAAATAATATAATGAAATTATAAAATGTGG [TGCATGCA_negctrl_site385] | 6.31 |
| AAAATTACTATATGAACACACATGATTAGATATATG [CACACA_site3083] | 6.31 |
| TATATATATATATACACACACACCCTAAAAATATAT [CACACA_site1611] | 9.41 |
| TGAAAGAATTAATTTTGTACATATAAAAATTTTATT [XGTACX_site8500] | 6.16 |
| AAAAACTTTTCAAGTAGTACCATATCTACAATAGTA [XGTACX_site8927] | 5.86 |
| AAACAAAAGATATATACACACTAAACATAAAAAAAA [CACACA_site6161] | 6.6 |
| CCTTTATTAAATAAATGTACATATTTTTGTGTTCTT [XGTACX_site2052] | 6.73 |
| GTTGGTAGGATGTATGGTACACGTAGTATTTTTCTT [XGTACX_site2] | 6.93 |
| AATAAAAATAAAATTGTATATTTTAAATGAAAATAA [CACACA_negctrl_site898] | 6.16 |
| AAACTCTCTTATATTAAACACACATATATATATGTA [CACACA_site8865] | 6.49 |
| CCGTATATTTTATATAGTACTCATCATATATTTTTA [XGTACX_site5560] | 6.4 |
| CAAATTGGGAAATTTTGTACATATAATAAGGATACC [XGTACX_site7728] | 6.76 |
| GATAATGAATGATGCACACTAAAAATATTCTACAAC [CACACA_site3622] | 8.94 |
| TTTTTAATTTTTTTTAAACACACACCGTACATTCAA [CACACA_site7925] | 6.99 |
| CATTTTCATTTTAAGGTGCATTAATATTTATTTTAA [GTGCAC_site9437] | 9.69 |
| TATATATATACATATTGTACATATTACATGCTATTA [XGTACX_site1184] | 7.48 |
| TATATACTTTATAAATGTACATATAATGTATTATTT [XGTACX_site7313] | 6.52 |
| CATCAAAATGCTACATGTACATATATATAATATATT [XGTACX_site5207] | 7.08 |

| Sequence | gcPBM binding intensity (ln) |
| --- | --- |
| GAAATGAACAAGTGGGTGCGTATTAATTACATATTA | 7 |
| AATATATATAAATAAACACACACAAATATAATAAAA [CACACA_site9176] | 7.2 |
| ATAGATAAATTTACGGGTACTAAAATGGAATATGAA [XGTACX_site8637] | 6.91 |
| ATTCACATATTATCTTTACACACTATATATAAGTTT [CACACA_site8901] | 6.95 |
| TATTTTACAATAACAATACACACTATAATATATATA [CACACA_site1391] | 6.81 |
| TGTGTTCAGTATTGCACACACACAACCAAATAAAAA [CACACA_site379] | 10.4 |
| TTAGTTATTATAATTTGTACACAAATGGTAAAGTAT [XGTACX_site2343] | 6.59 |
| TTTGTACCGGCATTTTTTTTTTCTTTTTTTTTCCAA [XGTACX_negctrl_site323] | 6.19 |
| TATTAAAAATGTTAAGTGCAAAAATAAAAATTGTGG [GTGCAC_site9854] | 8.21 |
| AAAATTATATATTATAGTACATAAAATTTTGATATA [XGTACX_site994] | 6.27 |
| TGTTAAAGAGAAAGTACTACACATATTATGTGTTTT [XGTACX_site1435] | 6.25 |
| TTTTATAAACAGAGGGGTACGGGAAAAAAAAAAAAA [XGTACX_site1480] | 6.57 |
| AGAAAAAAAAAACACACACACACACCGTCAATATAA [CACACA_site7895] | 6.81 |
| TTAAAAAAAATTATTTGTACTTAAAAATTTTATATT [XGTACX_site8751] | 5.74 |
| TATAAATTATATATTTGTACGTATATCACATATATA [XGTACX_site7053] | 6.31 |
| TACATGAATATATAAAGAAAAAAAAAAAAACACACA [XGTACX_negctrl_site350] | 6.82 |
| TTCTCATAATTAAATAGTACATATTTTAATAATCAC [XGTACX_site6116] | 6.42 |
| TTTATTGAATAAAATGCACACGCATGCGTTATTTAT [CACACA_site9154] | 9.03 |
